The structures appear in SMILES notation.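 Protocol summary: plate cells (96-well), add compound at 5 concentrations, incubate 48 h, interpolate endpoints linearly. GI50 is the concentration that inhibits growth by half. At the TGI there is no net growth.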 Active and inactive are the calls of the source. No stated cut-off is given here; in the data, active means GI50 below about 0.43 µM; inactive means the rest.

The subject of this test is NCI-H322M lung. Kind of test: inhibition of tumour cell growth, NCI panel, 48 h.
For the compound `O=c1c2[nH]ccc2nc2n1CCS2`, the GI50 was more than 100 µM and the TGI was more than 100 µM.

As to `C=C1C(=O)O[C@@H]2C1C(OC(C)CCC)[C@@H](O)[C@@H](C)C(O)C1O[C@]1(C)[C@H]2O` (some centres undefined), the outcome was inactive.

Take `COC(=O)[C@@H](C)C[C@H](Cc1ccccc1)NC(=O)c1nc([C@@H](C[C@H](C(C)C)N(C)C(=O)[C@@H](NC(=O)[C@H]2CCCCN2C)C(C)C)OC(C)=O)sc1C(C)C`: the GI50 was 0.0133 µM and the TGI came to 28.9 µM.

`CC(=O)Nc1ccc(S(=O)(=O)/N=C2\C=CC(=O)c3ccccc32)cc1`: the TGI came to 31.3 µM.

Regarding `O=C1CC2(CCC(O)(c3ccco3)C(C(=O)c3ccco3)C2)C(=O)c2ccccc2N1` (centres undefined), the TGI was more than 100 µM.

Consider `CC1C=CC(O)[C@]2(CO)CC3(CCC12)OCCO3` (some centres undefined), for which the TGI is more than 100 µM.

For the compound `COc1cc2c3c(c1OC)-c1ccccc1C(C(O)c1ccccc1)C3N(C)CC2` (centres undefined), the TGI was more than 100 µM.

On to `Cc1ccc(-n2c(=S)[nH]c3ccc(Br)cc3c2=O)cc1`, for which the TGI is more than 100 µM.

`S=c1[nH]nc(C23CC4CC(CC(C4)C2)C3)n1-c1ccc(Cl)cc1` displayed a TGI of 68.3 µM.

`CC1CN=C(c2cccc(-c3ccc(-c4ccccc4)o3)c2)N1` (centres undefined): the GI50 was 2.83 µM and the TGI is 8.13 µM.

Consider `C=Cc1ccccc1C1C(C(=O)OCC)=C(C)N=C2OC(C(=O)OC)C(=O)N21` (centres undefined), for which the TGI was more than 100 µM.

`COc1nc(=O)n(C2CC(F)C(CO)O2)cc1C` (centres undefined) displayed a TGI of more than 100 µM.

`O=C(O)CCC[C@]1(O)O[C@@]2(CCCC2=O)[C@]2(O)CCC[C@@]21O` gave a TGI of more than 100 µM.

The compound `Cc1ccc(C2=C(c3ccccc3)C(=O)C(c3ccccc3)=C2c2ccc(C)cc2)cc1` had a TGI of more than 100 µM.

Consider `O=C(Nc1ccc(-n2ccc3c(NC(=O)c4ccccc4)ncnc32)cc1)c1ccc(Cl)c(C(F)(F)F)c1`, for which the GI50 is 6.41 µM and the TGI was determined as 23.2 µM.

On to `O=C1C(=C2SC(c3ccccc3)(c3ccccc3)c3ccccc32)C(=O)c2ccccc21`, for which the TGI is more than 100 µM.

With `CCN(CC)c1c(C)c(C(=O)OC)nn1-c1ccccc1`, the TGI was more than 100 µM.

With `CN(C)CCNC(=O)c1cccc(NC(=O)c2ccccc2)c1[N+](=O)[O-]`, the TGI was more than 100 µM.

Compound `COc1ccc2[nH]c(Cl)c(/C=C3/C(=O)N(c4ccccc4)c4ccccc43)c2c1` came in with a TGI of 76.2 µM.

Turning to `C=C(C)[C@@H]1CC[C@]2(C)[C@H](CC[C@@H]3[C@@H]([C@@](C)(O)CCC=C(C)C)CC[C@]32C)[C@@]1(C)CCC(=O)N1CCN(C)CC1`, the GI50 was 12.6 µM and the TGI came out at 25.3 µM.

`O=c1cc(O)ccn1C1C=C(CO)C(O)C1O` (centres undefined) returned a TGI of more than 625 µM.

For `Cc1cc(C)c(-n2c(-c3ccccc3)cs/c2=N\N=C2C=C(C(C)(C)C)C(=O)C(C(C)(C)C)=C2)c(C)c1`, the TGI was more than 100 µM.

Compound `Cc1cn(C2OC(CO)C(O)C2O)c(=O)[nH]c1=O` (centres undefined) showed a TGI of more than 1000 µM.

In the case of `CN(C)CCn1c(=O)nc2c3c(c([N+](=O)[O-])ccc31)Nc1ccc(O)cc1-2`, the TGI is 21.2 µM.

`CCOC(=O)/C=C(\C)c1ccc(Cl)cc1` showed a TGI of more than 100 µM.

Consider `Brc1cccc(Nc2ncnc3sc4c(c23)CCC2(C4)OCCO2)c1`, for which the TGI was more than 100 µM.

With `N#C/C(=C/N1C(=O)/C(=C/c2ccc([N+](=O)[O-])cc2)SC1=S)c1nc2ccccc2s1`, the TGI was determined as 88.3 µM.

The compound `Cc1nn(CN2CCN(C)CC2)c(=S)n1/N=C/c1ccc(-c2ccc(Cl)cc2Cl)o1` had a TGI of more than 100 µM.

`CCCCCCCCCCCCCC(=S)N/C=C/OC` gave a TGI of more than 100 µM.

Regarding `O=C1c2ccccc2OCC1/C=N/O` (centres undefined), the TGI is more than 100 µM.

Turning to `Cc1cc(-c2ccc(C3C(C#N)=C(N)Oc4c3c(=O)oc3ccccc43)cc2)cnc1F` (centres undefined), the GI50 was 86.7 µM and the TGI was more than 100 µM.

Compound `COc1ccc(CNC(=O)[C@H](Cc2ccc(O)cn2)NC(C)=O)cc1OC` showed a TGI of more than 100 µM.

`COC(=O)CCC1=C(C)C(C)=N/C1=C\c1[nH]c(-c2ccc[nH]2)cc1OC`: the GI50 was 1.72 µM and the TGI was 19.3 µM.

In turn, `COc1ccc(NC(=O)CC(=O)NN2C(=O)/C(=C/c3ccc(N(CCC#N)CCC#N)cc3C)N=C2/C=C\c2ccccc2)cc1` showed a TGI of more than 100 µM.

The compound `CC(C)c1nc(Cl)nc(Cl)c1Cl` yielded a TGI of 2.78 µM.

In the case of `CCNC(=O)OCC1C2=C(C(=O)C(C)=C(N)C2=O)N2CC3C(N3C)C12OC` (centres undefined), the TGI is more than 100 µM.

On to `C=CCCC1CCCCNC1=S` (centres undefined), for which the TGI was more than 10 µM.

On to `Nc1ccc(C(=O)N/C(=C\c2cccc([N+](=O)[O-])c2)c2nc3ccccc3[nH]2)cc1`, for which the TGI was more than 100 µM.

With `Cc1c(Cl)ccc2c1NC(=O)C2(O)CC(=O)c1cccc2ccccc12` (centres undefined), the TGI is more than 100 µM.

Compound `COc1c(Cl)nc2ccccc2c1N=[N+]=[N-]` returned a TGI of more than 100 µM.

On to `COc1cccc(C2c3cc4c(cc3OC(NNc3ccccc3)C2C)OCO4)c1OC` (centres undefined), for which the TGI was more than 100 µM.

`NC(N)=NS(=O)(=O)c1ccc(NC(=O)c2cccc3c(Nc4ccc(S(=O)(=O)N=C(N)N)cc4)c4ccccc4nc23)cc1` registered a TGI of more than 100 µM.

`O=c1[nH]c2ccccc2c(O)c1/C=N/C(=S)NCCc1ccccc1` yielded a TGI of more than 100 µM.

As to `Oc1ccc(Cl)cc1-c1cc(-c2ccc(Cl)cc2)n[nH]1`, the GI50 was 2.72 µM and the TGI worked out at 41.7 µM.

In turn, `COc1c(O)ccc(C2=Cc3ccc(O)cc3OC2)c1OC` had a TGI of more than 77.6 µM.

For the compound `CCO/C(O)=C(/C(=N)N1CCOCC1)C(=O)Nc1cccc(Cl)c1`, the TGI is more than 100 µM.

The record behind these values is PubChem BioAssay (NCI).
